Hit rate of the full screen: of about 310,000 compounds, about 2,200 (0.71%) showed an effect of 50% or more. The effect is printed as a negative number. The list shows a part of the results.
Target: human ether-à-go-go-related gene (hERG) potassium channel (human, UniProt Q12809)
Experiment: primary screen, population patch clamp on CHO cells stably expressing hERG

human ether-à-go-go-related gene (hERG) potassium channel, sequence (Q12809 whole entry, looked up): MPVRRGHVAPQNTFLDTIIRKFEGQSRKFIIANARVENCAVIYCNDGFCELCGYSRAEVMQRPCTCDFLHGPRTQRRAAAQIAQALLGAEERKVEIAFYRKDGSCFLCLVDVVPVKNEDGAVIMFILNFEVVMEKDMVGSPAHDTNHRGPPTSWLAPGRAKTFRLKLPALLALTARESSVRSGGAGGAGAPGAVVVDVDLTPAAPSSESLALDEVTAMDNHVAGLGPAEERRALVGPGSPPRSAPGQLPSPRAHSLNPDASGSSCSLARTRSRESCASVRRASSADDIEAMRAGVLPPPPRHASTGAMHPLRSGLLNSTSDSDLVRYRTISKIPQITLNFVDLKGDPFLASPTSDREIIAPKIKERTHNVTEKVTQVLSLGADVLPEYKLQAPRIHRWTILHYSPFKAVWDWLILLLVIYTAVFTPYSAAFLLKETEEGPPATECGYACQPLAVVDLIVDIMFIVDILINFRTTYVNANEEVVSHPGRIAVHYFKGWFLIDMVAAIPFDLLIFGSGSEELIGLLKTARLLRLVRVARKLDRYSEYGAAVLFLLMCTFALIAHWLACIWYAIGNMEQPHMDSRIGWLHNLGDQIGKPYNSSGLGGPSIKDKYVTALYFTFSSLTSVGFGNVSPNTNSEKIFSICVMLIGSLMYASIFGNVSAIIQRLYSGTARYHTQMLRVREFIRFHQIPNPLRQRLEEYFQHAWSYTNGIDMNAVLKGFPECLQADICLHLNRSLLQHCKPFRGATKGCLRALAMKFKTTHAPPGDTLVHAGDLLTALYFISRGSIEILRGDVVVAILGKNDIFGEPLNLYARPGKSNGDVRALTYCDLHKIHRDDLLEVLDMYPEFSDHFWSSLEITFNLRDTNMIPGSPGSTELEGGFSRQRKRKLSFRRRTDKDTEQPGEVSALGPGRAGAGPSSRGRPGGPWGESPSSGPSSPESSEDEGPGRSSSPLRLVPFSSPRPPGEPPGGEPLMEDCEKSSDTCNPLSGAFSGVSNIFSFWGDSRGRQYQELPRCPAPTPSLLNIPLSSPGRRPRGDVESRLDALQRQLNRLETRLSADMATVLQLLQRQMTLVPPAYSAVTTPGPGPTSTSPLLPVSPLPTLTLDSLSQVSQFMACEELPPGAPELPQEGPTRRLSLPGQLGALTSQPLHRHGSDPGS

SMILES | hERG current change (%, negative = inhibition) at 1uM [%]
O=C1C2ON(c3ccccc3)C(c3cccnc3)C2C(=O)N1c1ccc(Cl)c(Cl)c1 (centres unmarked) | 16.6
Cc1ccc(-c2nc(Nc3ccccc3)n[nH]2)cc1 | 11.8
Cc1ccc(CC(C(=O)O)C(C)C(=O)Nc2ccc(F)cc2)cc1 (centres unmarked) | 4.96
Cc1ccccc1OCCCC(=O)Nc1nccs1 | 15.9
O=C(CSc1nnnn1-c1ccccc1F)NNC(=O)c1ccco1 | 17.3
Cc1cc(NC(=O)CSc2nnc(-c3ccc4c(c3)OCCO4)o2)no1 | 12.6
O=C(N/N=C/c1ccco1)c1ccc(C(=O)N/N=C/c2ccco2)o1 | 12.5
CCOc1ccccc1NC(=O)COc1cccc(-n2cnnn2)c1 | -4.1
COc1ccc(NC(=S)Nc2ccc(C)c(Cl)c2)cc1OC | 7.68
NC1=NC(=O)/C(=C/c2ccc(Br)cc2)S1 | 17.5
COc1cccc(C(=O)N/N=C2/SCC(=O)N2CCc2ccc(OC)c(OC)c2)c1 | 8.81
O=C(O)c1ccc(NS(=O)(=O)c2cccc3cccnc23)cc1 | 0.363
Cc1ccsc1C(=O)NNC(=O)Nc1ccc(Cl)c(Cl)c1 | 6.98
COc1ccc(-c2cc(C(=O)Nc3ccc(Cl)cc3Cl)c3ccccc3n2)cc1OC | 12.8
O=C(CNS(=O)(=O)c1ccc(Cl)c(C(F)(F)F)c1)NC1CCCCC1 | 8.07
COCCNC(=O)CSc1nc2cc3c(cc2c(=O)n1CCCC(=O)NCCc1ccc(OC)c(OC)c1)OCO3 | 17.9
O=C(NCc1cccnc1)c1ccccc1-c1ccccc1 | 5.9
C/C(=N\NC(N)=S)C1(C)CCCCC1 | 17.5
CC(=O)c1sc2nc(-c3ccco3)ccc2c1N | 6.17
COc1cccc2cc(C(=O)NCCc3ccccc3)oc12 | -9.44
Cc1cccc(N(C(=O)c2snc(C(N)=O)c2N)C(C(=O)NCC2CCCO2)c2ccc(N(C)C)cc2)c1C (centres unmarked) | 14.5
COc1ccc(-n2c(COc3ccc(C)cc3)nnc2SCC(=O)O)cc1 | 13.2

SMILES | hERG current change (%, negative = inhibition) at 1uM [%]
COc1ccc(C2/C(=C(\O)c3ccc4c(c3)CC(C)O4)C(=O)C(=O)N2Cc2cccnc2)c(OC)c1 (centres unmarked) | 12.3
Cc1ccc(S(=O)(=O)n2nnc3ccccc32)c(C)c1C | 14.7
Cc1sc2nc(CN3CCN(S(=O)(=O)c4cccc5nonc45)CC3)[nH]c(=O)c2c1C | 10.4
CCCn1c(N)c(C(=O)NS(=O)(=O)c2ccc(C)cc2)c(=O)n(C)c1=O | 5.76
O=C(O)CC1(CC(=O)Nc2ccc(C(F)(F)F)cc2)CCCC1 | 15.6
C/C(=N\NC(=O)Cc1ccccc1)c1ccc(Cl)s1 | 11.2
Br.CO[C@H]1CC=C2CCN3CCC4=C(CC(=O)OC4)[C@]23C1 | 17
CCN1CC=C2C(C#N)=C(N)C(C#N)(C#N)C(CCc3ccccc3)C2C1 (centres unmarked) | -15.6
COc1ccc(N2CC(C(=O)OCC(=O)Nc3ccccc3C)CC2=O)cc1 (centres unmarked) | 17.1
CCOC(=O)c1cnc2c(C)cc(C)cc2c1NCCCN1CCOCC1 | -21.1
CC(=O)Nc1ccc(S(=O)(=O)N2CCN=C2C)cc1 | 8.7
CC(C)NC(=O)c1ccc2c(=O)n(C3CCCC3)c(=S)[nH]c2c1 | -6.4
COc1ccccc1NC(=O)c1ccc(-n2ccnc2)c([N+](=O)[O-])c1 | 15.9
C/C=C/c1ccc(OCC(=O)N(CCOC)c2c(N)n(CCCC)c(=O)[nH]c2=O)c(OC)c1 | 12.2
COc1ccc(Cc2nnc(N/N=C/c3ccc(O)cc3O)[nH]c2=O)cc1OC | 2.64
Cc1nc2ccc(S(=O)(=O)NCC(=O)N3CCN(c4ccccc4)CC3)cc2s1 | 4.16
COc1ccc(S(=O)(=O)N2CCc3ccccc32)cc1[N+](=O)[O-] | -2.47
CCOc1ccc(C(=O)O)cc1OC | 12.1
C/C(=N/Nc1nc(C)c(C)s1)c1cccc([N+](=O)[O-])c1 | 11.6
Cc1ccccc1-n1c(C)nnc1SCc1cc(=O)oc2ccc3ccccc3c12 | -4.96
O=C1CCCC2=C1C(c1ccncc1)n1c(nc3ccccc31)N2 (centres unmarked) | 2.23
Cc1ccc(NC(=O)C2CCN(c3ncnc4sc(C)c(C)c34)CC2)cc1S(=O)(=O)N(C)C | -1.6
